# This is one part of the list.
# B1: PhoQ; a variant is named by its letters at X, in order, P23837 (parent)
# chain: MKKLLRLFFPLSLRVRFLLATAAVVLVLSLAYGMVALIGYSVSFDKTTFRLLRGESNLFYTLAKWENNKLHVELPENIDKQSPTMTLIYDENGQLLWAQRDVPWLMKMIQPDWLKSNGFHEIEADVNDTSLLLSGDHSIQQQLQEVREDDDDAEMTHSVAVNVYPATSRMPKLTIVVVDTIPVELKSSYMVWSWFIYVLSANLLLVIPLLWVAAWWSLRPIEALAKEVRELEEHNRELLNPATTRELTSLVRNLNRLLKSERERYDKYRTTLTDLTHSLKTPLXXLQXXLRSLRSEKMSVSDAEPVMLEQISRISQQIGYYLHRASMRGGTLLSRELHPVAPLLDNLTSALNKVYQRKGVNISLDISPEISFVGEQNDFVEVMGNVLDNACKYCLEFVEISARQTDEHLYIVVEDDGPGIPLSKREVIFDRGQRVDTLRPGQGVGLAVAREITEQYEGKIVAGESMLGGARMEVIFGRQHSAPKDE
# Variants of: B1
# Assay: enrichment ratio after two sorts for PhoP signalling (ratio (wild type AVST 3.29)); higher = more functional
# Settings: with PhoP (E. coli)
row,Variant,enrichment ratio
1,KNAF,≤ 0.25
2,VFNM,≤ 0.25
3,WQRH,≤ 0.25
4,AVTL,12.5
5,WCSN,≤ 0.25
6,GVCQ,11
7,STNY,14.2
8,RWTT,≤ 0.25
9,NGGP,≤ 0.25
10,QVWY,1.35
11,RHFD,0.682
12,FWQM,≤ 0.25
13,FERL,≤ 0.25
14,NEAL,≤ 0.25
15,LTLV,1.55
16,DAMR,≤ 0.25
17,SFLM,4.5
18,CTCP,≤ 0.25
19,FISW,≤ 0.25
20,NFNV,≤ 0.25
21,SAEG,≤ 0.25
22,IRLL,≤ 0.25
23,PQYA,≤ 0.25
24,TWKI,≤ 0.25
25,KLTE,≤ 0.25

row,Variant,enrichment ratio
1,YLCH,0.441
2,TVNI,12.6
3,YMLN,≤ 0.25
4,WSIR,0.354
5,VEDL,≤ 0.25
6,ETNI,≤ 0.25
7,WKAL,≤ 0.25
8,ITFF,≤ 0.25
9,FFAE,≤ 0.25
10,TQEY,≤ 0.25
11,HLLW,≤ 0.25
12,HIER,≤ 0.25
13,QGPY,≤ 0.25
14,WAPW,≤ 0.25
15,LFVR,≤ 0.25
16,HGDG,≤ 0.25
17,KCNC,≤ 0.25
18,DHTP,≤ 0.25
19,SGFP,≤ 0.25
20,TKFL,10.2
21,NVDH,≤ 0.25
22,FKVH,≤ 0.25
23,FEMR,≤ 0.25
24,NKQG,≤ 0.25
25,IKAI,≤ 0.25

row,Variant,enrichment ratio
1,SHGE,≤ 0.25
2,VFFS,≤ 0.25
3,QLVQ,≤ 0.25
4,PKMA,≤ 0.25
5,FWKY,≤ 0.25
6,EYLM,≤ 0.25
7,EDAK,≤ 0.25
8,EMHC,≤ 0.25
9,GLSQ,≤ 0.25
10,MPDH,≤ 0.25
11,PHGE,≤ 0.25
12,LGKT,≤ 0.25
13,NCTS,≤ 0.25
14,IKNN,≤ 0.25
15,GCIF,≤ 0.25
16,KDWY,≤ 0.25
17,EHDD,≤ 0.25
18,VLGE,≤ 0.25
19,HIYD,≤ 0.25
20,FWAK,≤ 0.25
21,AAHK,≤ 0.25
22,YKQR,≤ 0.25
23,DSCM,≤ 0.25
24,FHIQ,≤ 0.25
25,LWLS,≤ 0.25

row,Variant,enrichment ratio
1,EHMI,≤ 0.25
2,SRGD,≤ 0.25
3,GTQS,≤ 0.25
4,KLRV,≤ 0.25
5,TRMY,0.856
6,DYED,≤ 0.25
7,TPPH,≤ 0.25
8,KRKH,≤ 0.25
9,QNKQ,≤ 0.25
10,DDGT,≤ 0.25
11,NWFA,≤ 0.25
12,SCYS,0.535
13,FWIN,≤ 0.25
14,YKAC,≤ 0.25
15,QIIG,≤ 0.25
16,PICV,≤ 0.25
17,MMGC,≤ 0.25
18,HALH,3.81
19,HHYA,≤ 0.25
20,QHAD,≤ 0.25
21,GQIS,≤ 0.25
22,HLTD,≤ 0.25
23,EGMI,≤ 0.25
24,DTTR,≤ 0.25
25,GTWN,≤ 0.25

row,Variant,enrichment ratio
1,NSAR,≤ 0.25
2,TFMS,1.78
3,NFSM,≤ 0.25
4,SGWS,≤ 0.25
5,IKHL,≤ 0.25
6,PYYD,≤ 0.25
7,TEPP,≤ 0.25
8,TAQV,5.92
9,LSTW,≤ 0.25
10,ITRL,≤ 0.25
11,YAVI,≤ 0.25
12,VAKR,≤ 0.25
13,PLHT,≤ 0.25
14,QQNS,8.87
15,SGPT,≤ 0.25
16,SPIM,≤ 0.25
17,WHYN,≤ 0.25
18,PNMC,≤ 0.25
19,MMKG,≤ 0.25
20,KLCL,≤ 0.25
21,MQSE,≤ 0.25

# From a collection of fitness landscapes (doi:10.1126/science.1257360)
